A lower IC50 marks a more sensitive line; a limit (>, <) means that the fit lies beyond the doses tested. The AUC spans the tested range (256-fold, ending at the top dose) of the same fit; the more sensitive the line, the further below 1. For some of these results: An inferred top dose was derived from the fitted curves, not read from the paper. For some of these results: An entry number marks a drug with two screens in the source, which often give different values.
Experiments:
Assay in all cases: Viability of human cancer cell lines after 72 h of drug (GDSC screen)
Tretinoin = compound: CC1=C(/C=C/C(C)=C/C=C/C(C)=C/C(=O)O)C(C)(C)CCC1 [Tretinoin]; conditions: top dose 10 µM; top dose inferred
Method: (§1)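 Human cancer cell lines in 384-well plates, medium with 10% serum, drug for 72 h over a 256-fold dose range (nine 2-fold or five 4-fold steps up to the top dose). Adherent lines were fixed and stained with the nucleic acid dye Syto60, suspension lines read with resazurin; signal relative to control wells, capped at 0 and 100%. One two-parameter sigmoid per drug and line, fitted in a mixed model over all curves with the slope shared within a line.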

GSK690693 = compound: CCn1c(-c2nonc2N)nc2c(C#CC(C)(C)O)ncc(OC[C@H]3CCCNC3)c21 [GSK690693]; conditions: top dose 10.24 µM; top dose inferred
Method: as §1

UNC0638 = compound: COc1cc2c(NC3CCN(C(C)C)CC3)nc(C3CCCCC3)nc2cc1OCCCN1CCCC1 [UNC0638]
Method: as §1

SB-505124 = compound: Cc1cccc(-c2[nH]c(C(C)(C)C)nc2-c2ccc3c(c2)OCO3)n1 [SB-505124]; conditions: top dose 10 µM; top dose inferred
Method: as §1

BX-795 = compound: O=C(NCCCNc1nc(Nc2cccc(NC(=O)N3CCCC3)c2)ncc1I)c1cccs1 [BX-795]; conditions: top dose 5 µM; top dose inferred
Method: as §1

PI-103 = compound: Oc1cccc(-c2nc(N3CCOCC3)c3oc4ncccc4c3n2)c1 [PI-103]; conditions: top dose 10.24 µM
Method: as §1

[1] = top dose 20 µM, screen: GDSC drug entry 1236, top dose inferred
[2] = top dose 40 µM, screen: GDSC drug entry 245

| Cell Line | AUC (Tretinoin) | IC50 (Tretinoin) [µM] | AUC (GSK690693) | IC50 (GSK690693) [µM] | AUC (UNC0638; [1]) | IC50 (UNC0638; [1]) [µM] | AUC (UNC0638; [2]) | IC50 (UNC0638; [2]) [µM] | AUC (SB-505124) | IC50 (SB-505124) [µM] | AUC (BX-795) | IC50 (BX-795) [µM] | AUC (PI-103) | IC50 (PI-103) [µM] |
| --- | --- | --- | --- | --- | --- | --- | --- | --- | --- | --- | --- | --- | --- | --- |
| 22RV1 (prostate, adherent) | 0.98 | > 10 | 0.854 | > 10.2 | 0.732 | 6.84 | 0.61 | 5.42 | 0.949 | > 10 | 0.92 | > 5 | 0.416 | 0.357 |
| 42-MG-BA (glioma, adherent) | 0.957 | > 10 | 0.923 | > 10.2 | 0.705 | 4.94 | 0.669 | 7.68 | 0.967 | > 10 | 0.783 | 2.26 | 0.711 | 2.64 |
| 201T (lung adenocarcinoma, adherent) | 0.971 | > 10 | 0.957 | > 10.2 | – | – | 0.927 | > 40 | – | – | 0.898 | > 5 | 0.827 | 8.5 |
| 451Lu (melanoma, adherent) | 0.964 | > 10 | 0.989 | > 10.2 | 0.972 | > 20 | 0.839 | 25.5 | 0.988 | > 10 | 0.935 | > 5 | 0.774 | 3.84 |
| 639-V (bladder, adherent) | 0.992 | > 10 | 0.992 | > 10.2 | 0.847 | 11.5 | 0.967 | > 40 | 0.843 | 5.59 | 0.925 | > 5 | 0.821 | 4.82 |
| 647-V (bladder, adherent) | 0.957 | > 10 | 0.984 | > 10.2 | 0.815 | 11.1 | 0.91 | > 40 | 0.986 | > 10 | 0.959 | > 5 | 0.868 | 9.36 |
| 5637 (bladder, adherent) | 0.987 | > 10 | 0.92 | > 10.2 | 0.964 | > 20 | 0.714 | 9.4 | 0.974 | > 10 | 0.84 | 2.97 | 0.797 | 4.31 |
| 8305C (thyroid, adherent) | 0.978 | > 10 | 0.982 | > 10.2 | 0.808 | 14.5 | 0.982 | > 40 | 0.975 | > 10 | 0.818 | 3.99 | 0.836 | 10 |
| 8505C (thyroid, adherent) | 0.89 | > 10 | 0.961 | > 10.2 | 0.719 | 5.43 | 0.697 | 9.28 | 0.983 | > 10 | 0.872 | > 5 | 0.584 | 1.1 |
| 23132-87 (stomach, adherent) | 0.985 | > 10 | 0.864 | 9.51 | 0.885 | > 20 | 0.743 | 12.8 | 0.985 | > 10 | 0.943 | > 5 | 0.576 | 1.04 |
| A431 (skin, adherent) | 0.939 | > 10 | 0.932 | > 10.2 | 0.954 | > 20 | 0.818 | 21.4 | 0.986 | > 10 | 0.814 | 2.58 | 0.761 | 3.49 |
| AGS (stomach, adherent) | 0.989 | > 10 | 0.973 | > 10.2 | 0.851 | 13 | 0.91 | > 40 | – | – | 0.733 | 1.32 | 0.813 | 4.81 |
| C-33-A (cervix, adherent) | 0.979 | > 10 | 0.822 | 6.03 | 0.949 | > 20 | 0.74 | 12.1 | 0.91 | > 10 | 0.963 | > 5 | – | – |
| HGC-27 (stomach, adherent) | 0.968 | > 10 | – | – | 0.94 | > 20 | 0.898 | 36.8 | 0.941 | > 10 | 0.779 | 1.72 | 0.198 | 0.0986 |
| KYSE-140 (oesophagus, adherent) | 0.926 | > 10 | 0.646 | 1.72 | 0.809 | 12.1 | 0.984 | > 40 | – | – | 0.866 | > 5 | 0.663 | 1.94 |
| LN-229 (glioma, adherent) | 0.987 | > 10 | 0.987 | > 10.2 | 0.925 | > 20 | 0.85 | 30 | 0.982 | > 10 | 0.974 | > 5 | – | – |
| MIA-PaCa-2 (pancreas, adherent) | 0.972 | > 10 | 0.984 | > 10.2 | – | – | 0.983 | > 40 | – | – | 0.793 | 2.54 | 0.982 | > 10.2 |
| MKN28 (stomach, adherent) | 0.98 | > 10 | 0.975 | > 10.2 | 0.813 | 11.1 | 0.817 | 23.1 | – | – | 0.913 | > 5 | 0.894 | > 10.2 |
| NCC010 (kidney, adherent) | 0.986 | > 10 | – | – | 0.74 | 6.44 | – | – | 0.984 | > 10 | 0.839 | 3.77 | – | – |
| NCI-H146 (small cell lung carcinoma, suspension) | 0.967 | > 10 | – | – | 0.847 | 10.4 | – | – | 0.992 | > 10 | 0.948 | > 5 | – | – |
| NCI-H508 (large intestine, semi-adherent) | 0.726 | 4.38 | – | – | 0.803 | 19.9 | – | – | 0.965 | > 10 | 0.895 | > 5 | – | – |
